# According to the supplement of paper PMC8728848:
# This is one part of the list.
# B1: Cohesin-mDC-ASGPR (Macaca mulatta) (protein)
# chain: LDITSHHHHHHDDLDAVRIKVDTVNAKPGDTVRIPVRFSGIPSKGIANCDFVYSYDPNVLEIIEIEPGDIIVDPNPDKSFDTAVYPDRKIIVFLFAEDSGTGAYAITKDGVFATIVAKVKEGAPNGLSVIKFVEVGGFANNDLVEQKTQFFDGGVNVGDTTEPATPTTPVTTPTTTDDLDAASSQNSKFQRDLVTLRTDFSNFTSNTVAEIQALTSQGSSVEEMIASLKAEVEVIKQEQQAVHSEMLLRVQRLMQDLNKLTCQVATLKNNASTERTCCPVNWVEHQDSCYWFSRSGMPWAEAEKHCQLENAHLVVINSREEQNFVQEHLSFAYTWMGLSDREGAWKWVDGTDYETGFQNWKPGQPDDWQGHGLGGGEDCAHFHPDGRWNDDVCQRPYYWVCEAGLTQASQESH
# Tests used:
# Assay in all cases: glycan array binding signal (z-score within array); higher = stronger binding
# Conditions in all cases: glycan notation: IUPAC condensed, linker removed
# [1] = target: GlcNAc(a1-4)Gal(b1-3)GlcNAc
# Summary of the method: (§1)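 The binding signal is a Z-score computed within each array. Data were drawn from 3228 arrays in the Consortium for Functional Glycomics database, restricted to those with a known protein sequence. Scores were averaged over arrays of the same protein sequence at different concentrations or buffers, and over linkers, and negative values can be taken as non-binding.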
# [2] = target: GlcNAc(a1-4)Gal(b1-4)GalNAc
# Summary of the method: as §1
# [3] = target: GlcNAc(a1-4)Gal(b1-4)GlcNAc
# Summary of the method: as §1
# [4] = target: GlcNAc(a1-4)Gal(b1-4)GlcNAc(b1-3)Gal(b1-4)Glc
# Summary of the method: as §1
# [5] = target: GlcNAc(a1-4)Gal(b1-4)GlcNAc(b1-3)Gal(b1-4)GlcNAc
# Summary of the method: as §1
# [6] = target: GlcNAc(a1-4)Gal(b1-4)GlcNAc(b1-3)Gal(b1-4)GlcNAc(b1-3)Gal(b1-4)GlcNAc
# Summary of the method: as §1
# [7] = target: GlcNAc(a1-4)Gal(b1-4)GlcNAc(b1-3)Gal(b1-4)[Fuc(a1-3)]GlcNAc(b1-3)Gal(b1-4)[Fuc(a1-3)]GlcNAc
# Summary of the method: as §1
# [8] = target: GlcNAc(a1-6)Gal(b1-4)GlcNAc
# Summary of the method: as §1
# [9] = target: GlcNAc(b1-2)Gal(b1-3)GalNAc
# Summary of the method: as §1
# [10] = target: GlcNAc(b1-2)Man(a1-3)[GlcNAc(b1-2)Man(a1-6)]Man(b1-4)GlcNAc(b1-4)GlcNAc
# Summary of the method: as §1
# [11] = target: GlcNAc(b1-2)Man(a1-3)[GlcNAc(b1-2)Man(a1-6)]Man(b1-4)GlcNAc(b1-4)[Fuc(a1-6)]GlcNAc
# Summary of the method: as §1
# [12] = target: GlcNAc(b1-2)Man(a1-3)[GlcNAc(b1-4)][GlcNAc(b1-2)Man(a1-6)]Man(b1-4)GlcNAc(b1-4)GlcNAc
# Summary of the method: as §1
# [13] = target: GlcNAc(b1-2)Man(a1-3)[GlcNAc(b1-4)][GlcNAc(b1-2)Man(a1-6)]Man(b1-4)GlcNAc(b1-4)[Fuc(a1-6)]GlcNAc
# Summary of the method: as §1
# [14] = target: GlcNAc(b1-2)[GlcNAc(b1-4)]Man(a1-3)[GlcNAc(b1-2)Man(a1-6)]Man(b1-4)GlcNAc(b1-4)GlcNAc
# Summary of the method: as §1
# [15] = target: GlcNAc(b1-2)[GlcNAc(b1-4)]Man(a1-3)[GlcNAc(b1-4)][GlcNAc(b1-2)Man(a1-6)]Man(b1-4)GlcNAc(b1-4)GlcNAc
# Summary of the method: as §1
# [16] = target: GlcNAc(b1-2)[GlcNAc(b1-4)]Man(a1-3)[GlcNAc(b1-4)][GlcNAc(b1-2)[GlcNAc(b1-6)]Man(a1-6)]Man(b1-4)GlcNAc(b1-4)GlcNAc
# Summary of the method: as §1
# [17] = target: GlcNAc(b1-2)[GlcNAc(b1-4)]Man(a1-3)[GlcNAc(b1-4)][GlcNAc(b1-2)[GlcNAc(b1-6)]Man(a1-6)]Man(b1-4)GlcNAc(b1-4)[Fuc(a1-6)]GlcNAc
# Summary of the method: as §1
# [18] = target: GlcNAc(b1-2)[GlcNAc(b1-6)]Man(a1-6)[GlcNAc(b1-2)Man(a1-3)]Man(b1-4)GlcNAc(b1-4)GlcNAc
# Summary of the method: as §1
# [19] = target: GlcNAc(b1-2)[GlcNAc(b1-6)]Man(a1-6)[GlcNAc(b1-2)Man(a1-3)]Man(b1-4)GlcNAc(b1-4)[Fuc(a1-6)]GlcNAc
# Summary of the method: as §1
# [20] = target: GlcNAc(b1-2)[GlcNAc(b1-6)]Man(a1-6)[GlcNAc(b1-4)][GlcNAc(b1-2)Man(a1-3)]Man(b1-4)GlcNAc(b1-4)GlcNAc
# Summary of the method: as §1
# GlcNAc(b1-3)Fuc = target: GlcNAc(b1-3)Fuc
# Summary of the method: as §1
# GlcNAc(b1-3)Gal = target: GlcNAc(b1-3)Gal
# Summary of the method: as §1
# [21] = target: GlcNAc(b1-3)Gal(b1-3)GalNAc
# Summary of the method: as §1
# GlcNAc(b1-3)Gal(b1-4)Glc = target: GlcNAc(b1-3)Gal(b1-4)Glc
# Summary of the method: as §1
# [22] = target: GlcNAc(b1-3)Gal(b1-4)GlcNAc
# Summary of the method: as §1
# [23] = target: GlcNAc(b1-3)Gal(b1-4)GlcNAc(b1-2)Man(a1-3)[GlcNAc(b1-3)Gal(b1-4)GlcNAc(b1-2)Man(a1-6)]Man(b1-4)GlcNAc(b1-4)GlcNAc
# Summary of the method: as §1
# [24] = target: GlcNAc(b1-3)Gal(b1-4)GlcNAc(b1-2)Man(a1-3)[GlcNAc(b1-3)Gal(b1-4)GlcNAc(b1-2)Man(a1-6)]Man(b1-4)GlcNAc(b1-4)[Fuc(a1-6)]GlcNAc
# Summary of the method: as §1
# [25] = target: GlcNAc(b1-3)Gal(b1-4)GlcNAc(b1-2)[GlcNAc(b1-3)Gal(b1-4)GlcNAc(b1-6)]Man(a1-6)[GlcNAc(b1-3)Gal(b1-4)GlcNAc(b1-2)Man(a1-3)]Man(b1-4)GlcNAc(b1-4)GlcNAc
# Summary of the method: as §1
# [26] = target: GlcNAc(b1-3)Gal(b1-4)GlcNAc(b1-3)Gal(b1-4)GlcNAc
# Summary of the method: as §1
# [27] = target: GlcNAc(b1-3)Gal(b1-4)GlcNAc(b1-3)Gal(b1-4)GlcNAc(b1-2)Man(a1-3)[GlcNAc(b1-3)Gal(b1-4)GlcNAc(b1-3)Gal(b1-4)GlcNAc(b1-2)Man(a1-6)]Man(b1-4)GlcNAc(b1-4)GlcNAc
# Summary of the method: as §1
# [28] = target: GlcNAc(b1-3)Gal(b1-4)GlcNAc(b1-3)Gal(b1-4)GlcNAc(b1-2)Man(a1-3)[GlcNAc(b1-3)Gal(b1-4)GlcNAc(b1-3)Gal(b1-4)GlcNAc(b1-2)Man(a1-6)]Man(b1-4)GlcNAc(b1-4)[Fuc(a1-6)]GlcNAc
# Summary of the method: as §1
# [29] = target: GlcNAc(b1-3)Gal(b1-4)GlcNAc(b1-3)Gal(b1-4)GlcNAc(b1-2)[GlcNAc(b1-3)Gal(b1-4)GlcNAc(b1-3)Gal(b1-4)GlcNAc(b1-6)]Man(a1-6)[GlcNAc(b1-3)Gal(b1-4)GlcNAc(b1-3)Gal(b1-4)GlcNAc(b1-2)Man(a1-3)]Man(b1-4)GlcNAc(b1-4)[Fuc(a1-6)]GlcNAc
# Summary of the method: as §1
# [30] = target: GlcNAc(b1-3)Gal(b1-4)GlcNAc(b1-3)Gal(b1-4)GlcNAc(b1-3)Gal(b1-4)GlcNAc(b1-2)Man(a1-3)[GlcNAc(b1-3)Gal(b1-4)GlcNAc(b1-3)Gal(b1-4)GlcNAc(b1-3)Gal(b1-4)GlcNAc(b1-2)Man(a1-6)]Man(b1-4)GlcNAc(b1-4)GlcNAc
# Summary of the method: as §1
# [31] = target: GlcNAc(b1-3)Gal(b1-4)GlcNAc(b1-3)Gal(b1-4)GlcNAc(b1-3)Gal(b1-4)GlcNAc(b1-2)Man(a1-3)[GlcNAc(b1-3)Gal(b1-4)GlcNAc(b1-3)Gal(b1-4)GlcNAc(b1-3)Gal(b1-4)GlcNAc(b1-2)Man(a1-6)]Man(b1-4)GlcNAc(b1-4)[Fuc(a1-6)]GlcNAc
# Summary of the method: as §1
# [32] = target: GlcNAc(b1-3)Gal(b1-4)GlcNAc(b1-3)Gal(b1-4)GlcNAc(b1-3)Gal(b1-4)GlcNAc(b1-2)[GlcNAc(b1-3)Gal(b1-4)GlcNAc(b1-3)Gal(b1-4)GlcNAc(b1-3)Gal(b1-4)GlcNAc(b1-6)]Man(a1-6)[GlcNAc(b1-3)Gal(b1-4)GlcNAc(b1-3)Gal(b1-4)GlcNAc(b1-3)Gal(b1-4)GlcNAc(b1-2)Man(a1-3)]Man(b1-4)GlcNAc(b1-4)[Fuc(a1-6)]GlcNAc
# Summary of the method: as §1
# [33] = target: GlcNAc(b1-3)Gal(b1-4)GlcNAc(b1-3)Gal(b1-4)GlcNAc(b1-3)Gal(b1-4)GlcNAc(b1-3)Gal(b1-4)GlcNAc(b1-2)Man(a1-3)[GlcNAc(b1-3)Gal(b1-4)GlcNAc(b1-3)Gal(b1-4)GlcNAc(b1-3)Gal(b1-4)GlcNAc(b1-3)Gal(b1-4)GlcNAc(b1-2)Man(a1-6)]Man(b1-4)GlcNAc(b1-4)GlcNAc
# Summary of the method: as §1
# [34] = target: GlcNAc(b1-3)Gal(b1-4)GlcNAc(b1-3)Gal(b1-4)GlcNAc(b1-3)Gal(b1-4)GlcNAc(b1-3)Gal(b1-4)GlcNAc(b1-2)Man(a1-3)[GlcNAc(b1-3)Gal(b1-4)GlcNAc(b1-3)Gal(b1-4)GlcNAc(b1-3)Gal(b1-4)GlcNAc(b1-3)Gal(b1-4)GlcNAc(b1-2)Man(a1-6)]Man(b1-4)GlcNAc(b1-4)[Fuc(a1-6)]GlcNAc
# Summary of the method: as §1
# [35] = target: GlcNAc(b1-3)Gal(b1-4)GlcNAc(b1-3)Gal(b1-4)GlcNAc(b1-3)Gal(b1-4)GlcNAc(b1-3)Gal(b1-4)GlcNAc(b1-2)[GlcNAc(b1-3)Gal(b1-4)GlcNAc(b1-3)Gal(b1-4)GlcNAc(b1-3)Gal(b1-4)GlcNAc(b1-3)Gal(b1-4)GlcNAc(b1-6)]Man(a1-6)[GlcNAc(b1-3)Gal(b1-4)GlcNAc(b1-3)Gal(b1-4)GlcNAc(b1-3)Gal(b1-4)GlcNAc(b1-3)Gal(b1-4)GlcNAc(b1-2)Man(a1-3)]Man(b1-4)GlcNAc(b1-4)[Fuc(a1-6)]GlcNAc
# Summary of the method: as §1
binder,measurement,setting,value
B1,glycan array binding signal (z-score),[1],-0.38
same,glycan array binding signal (z-score),[2],-0.403
same,glycan array binding signal (z-score),[3],-0.423
same,glycan array binding signal (z-score),[4],-0.43
same,glycan array binding signal (z-score),[5],-0.428
same,glycan array binding signal (z-score),[6],-0.419
same,glycan array binding signal (z-score),[7],-0.334
same,glycan array binding signal (z-score),[8],-0.371
same,glycan array binding signal (z-score),[9],-0.382
same,glycan array binding signal (z-score),[10],-0.414
same,glycan array binding signal (z-score),[11],-0.401
same,glycan array binding signal (z-score),[12],-0.417
same,glycan array binding signal (z-score),[13],-0.415
same,glycan array binding signal (z-score),[14],-0.422
same,glycan array binding signal (z-score),[15],-0.413
same,glycan array binding signal (z-score),[16],-0.419
same,glycan array binding signal (z-score),[17],-0.432
same,glycan array binding signal (z-score),[18],-0.398
same,glycan array binding signal (z-score),[19],-0.415
same,glycan array binding signal (z-score),[20],-0.42
same,glycan array binding signal (z-score),GlcNAc(b1-3)Fuc,-0.425
same,glycan array binding signal (z-score),GlcNAc(b1-3)Gal,-0.398
same,glycan array binding signal (z-score),[21],-0.317
same,glycan array binding signal (z-score),GlcNAc(b1-3)Gal(b1-4)Glc,-0.404
same,glycan array binding signal (z-score),[22],-0.409
same,glycan array binding signal (z-score),[23],-0.429
same,glycan array binding signal (z-score),[24],-0.375
same,glycan array binding signal (z-score),[25],-0.07
same,glycan array binding signal (z-score),[26],-0.424
same,glycan array binding signal (z-score),[27],-0.331
same,glycan array binding signal (z-score),[28],-0.329
same,glycan array binding signal (z-score),[29],-0.42
same,glycan array binding signal (z-score),[30],-0.431
same,glycan array binding signal (z-score),[31],-0.338
same,glycan array binding signal (z-score),[32],-0.407
same,glycan array binding signal (z-score),[33],-0.372
same,glycan array binding signal (z-score),[34],-0.203
same,glycan array binding signal (z-score),[35],-0.426
